{"source": "the supplement of paper PMC7580552", "note": "Counter-ions that a name gives are not always drawn. The list shows a part of the results. Many values rest on one well or one pass, so single values are uncertain.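 Further: stationary (unshaken) cultures in 96-well plates, started at OD600 0.05 from mid-exponential cells, with compounds supplied from DMSO stocks.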", "data": [{"tested_on": "Escherichia coli W3110", "assay": "planktonic growth (OD600) relative to untreated control; higher = more growth", "conditions": "10 µM; 20-24 h; 30 °C; TB", "units": {"planktonic growth": "%"}, "values": [{"smiles": "CC(C)CC(=O)N[C@H](C(=O)N[C@H](C(=O)N[C@@H](CC(C)C)[C@@H](O)CC(=O)N[C@@H](C)C(=O)N[C@@H](CC(C)C)[C@@H](O)CC(=O)O)C(C)C)C(C)C", "note": "[Pepstatin A]", "planktonic growth": 110}, {"smiles": "C[C@H](O)C(=O)Nc1c(I)c(C(=O)NC(CO)CO)c(I)c(C(=O)NC(CO)CO)c1I", "note": "[Iopamidol]", "planktonic growth": 106}, {"smiles": "CC[C@H]1OC(=O)[C@H](C)[C@@H](O[C@H]2C[C@@](C)(OC)[C@@H](O)[C@H](C)O2)[C@H](C)[C@@H](O[C@@H]2O[C@H](C)C[C@H](N(C)C)[C@H]2O)[C@](C)(O)C[C@@H](C)[C@@H]2N[C@@H](COCCOC)O[C@H]([C@H]2C)[C@]1(C)O", "note": "[Dirithromycin]", "planktonic growth": 53}, {"smiles": "O=C1CC2(CCCC2)CC(=O)N1CCCCN1CCN(c2ncccn2)CC1", "note": "[Buspirone hydrochloride]", "planktonic growth": 112}, {"smiles": "Cc1cc(CC(=O)O)n(C)c1C(=O)c1ccc(Cl)cc1", "note": "[Zomepirac sodium salt]", "planktonic growth": 87}, {"smiles": "O=C(NCC(O)CO)c1c(I)c(C(=O)NCC(O)CO)c(I)c(N(CCO)C(=O)CO)c1I", "note": "(configuration not stated) [Ioversol]", "planktonic growth": 92}, {"smiles": "CO/N=C(\\C(=O)N[C@@H]1C(=O)N2C(C(=O)O)=C(COC(N)=O)CS[C@H]12)c1ccco1", "note": "[Cefuroxime sodium salt]", "planktonic growth": 32}, {"smiles": "Nc1ccc(S(=O)(=O)Nc2ccnn2-c2ccccc2)cc1", "note": "[Sulfaphenazole]", "planktonic growth": 68}, {"smiles": "CC1Cc2ccccc2N1NC(=O)c1ccc(Cl)c(S(N)(=O)=O)c1", "note": "(configuration not stated) [Indapamide]", "planktonic growth": 89}, {"smiles": "CCN1CCC[C@H]1CNC(=O)c1c(OC)ccc(Br)c1OC", "note": "[Remoxipride Hydrochloride]", "planktonic growth": 97}, {"smiles": "CCN1CCN(c2cc3c(cc2F)c(=O)c(C(=O)O)cn3C2CC2)CC1", "note": "[Enrofloxacin]", "planktonic growth": 21}, {"smiles": "Cc1nnc(NS(=O)(=O)c2ccc(N)cc2)s1", "note": "[Sulfamethizole]", "planktonic growth": 65}, {"smiles": "O=C(O)COC(=O)Cc1ccccc1Nc1c(Cl)cccc1Cl", "note": "[Aceclofenac]", "planktonic growth": 91}, {"smiles": "Cc1cnc(NC(=O)C2=C(O)c3ccccc3S(=O)(=O)N2C)s1", "note": "[Meloxicam]", "planktonic growth": 109}, {"smiles": "COCCOC(=O)C1=C(C)NC(C)=C(C(=O)OC/C=C/c2ccccc2)C1c1cccc([N+](=O)[O-])c1", "note": "(configuration not stated) [Cilnidipine]", "planktonic growth": 105}, {"smiles": "CCCCNc1ccc(C(=O)OCCOCCOCCOCCOCCOCCOCCOCCOCCOC)cc1", "note": "[Benzonatate]", "planktonic growth": 87}, {"smiles": "CCn1nc(C(=O)O)c(=O)c2cc3c(cc21)OCO3", "note": "[Cinoxacin]", "planktonic growth": 47}, {"smiles": "Cc1cc(/C=C/c2ccc3cc(N(C)C)ccc3[n+]2C)c(C)n1-c1ccccc1", "note": "[Pyrvinium pamoate]", "planktonic growth": 101}, {"smiles": "CCCc1nc(C)c2c(=O)nc(-c3cc(S(=O)(=O)N4CCN(CC)CC4)ccc3OCC)[nH]n12", "note": "[Vardenafil]", "planktonic growth": 77}, {"smiles": "O=C(O)/C=C/c1ccc(Cn2ccnc2)cc1", "note": "[Ozagrel hydrochloride]", "planktonic growth": 95}, {"smiles": "C[C@H]1C[C@H]2[C@@H]3CCC4=CC(=O)C=C[C@]4(C)[C@@]3(F)[C@@H](O)C[C@]2(C)[C@@]1(O)C(=O)CO", "note": "[Betamethasone]", "planktonic growth": 103}, {"smiles": "Oc1ccc(OCc2ccccc2)cc1", "note": "[Monobenzone]", "planktonic growth": 100}, {"smiles": "CC(C(=O)O)c1ccc(N2Cc3ccccc3C2=O)cc1", "note": "(configuration not stated) [Indoprofen]", "planktonic growth": 96}, {"smiles": "CC1=Nc2ccc(Cl)cc2S(=O)(=O)N1", "note": "[Diazoxide]", "planktonic growth": 107}, {"smiles": "C=C1/C(=C\\C=C2/CCC[C@]3(C)[C@@H]([C@H](C)/C=C/[C@@H](O)C4CC4)CC[C@@H]23)C[C@@H](O)C[C@@H]1O", "note": "[Calcipotriene]", "planktonic growth": 97}, {"smiles": "Cc1ccc(Cl)c(Nc2ccccc2C(=O)O)c1Cl", "note": "[Meclofenamic acid sodium salt monohydrate]", "planktonic growth": 103}, {"smiles": "O=C(NCCO[N+](=O)[O-])c1cccnc1", "note": "[Nicorandil]", "planktonic growth": 93}, {"smiles": "COC(=O)Nc1nc2ccc(SC(C)C)cc2[nH]1", "note": "[Methiazole]", "planktonic growth": 91}, {"smiles": "CN(C)CCOc1ccc(/C(=C(/CCCl)c2ccccc2)c2ccccc2)cc1", "note": "[Toremifene]", "planktonic growth": 115}, {"smiles": "CCN1CCN(C(=O)N[C@@H](C(=O)N[C@@H]2C(=O)N3C(C(=O)O)=C(CSc4nnnn4C)CS[C@H]23)c2ccc(O)cc2)C(=O)C1=O", "note": "[Cefoperazone dihydrate]", "planktonic growth": 17}, {"smiles": "CC(NCCC(c1ccccc1)c1ccccc1)c1ccccc1", "note": "(configuration not stated) [Fendiline hydrochloride]", "planktonic growth": 93}, {"smiles": "O=c1[nH]c(=O)n(C2CCCO2)cc1F", "note": "(configuration not stated) [Tegafur]", "planktonic growth": 94}, {"smiles": "Cc1c(N(C)CS(=O)(=O)O)c(=O)n(-c2ccccc2)n1C", "note": "[Dipyrone]", "planktonic growth": 105}, {"smiles": "CC(C)NC[C@@H](O)COc1cccc2ccccc12", "note": "[(R)-Propranolol hydrochloride]", "planktonic growth": 93}, {"smiles": "CCN(CC)CCc1nc(-c2ccccc2)no1", "note": "[Oxalamine citrate salt]", "planktonic growth": 96}, {"smiles": "CNCC(O)c1ccc(OC(=O)C(C)(C)C)c(OC(=O)C(C)(C)C)c1", "note": "(configuration not stated) [Dipivefrin hydrochloride]", "planktonic growth": 103}, {"smiles": "CC(C)NCC(O)c1ccc(O)c(O)c1", "note": "(single isomer, unassigned; (+)) [(+)-Isoproterenol (+)-bitartrate salt]", "planktonic growth": 94}, {"smiles": "CN1CCN(CCCN2c3ccccc3Sc3ccc(Cl)cc32)CC1", "note": "[Prochlorperazine dimaleate]", "planktonic growth": 107}, {"smiles": "Cc1nc(=O)c2cc(CN(C)c3ccc(C(=O)N[C@@H](CCC(=O)O)C(=O)O)s3)ccc2[nH]1", "note": "[Raltitrexed]", "planktonic growth": 103}, {"smiles": "O=c1oc2ccccc2c(O)c1Cc1c(O)c2ccccc2oc1=O", "note": "[Dicumarol]", "planktonic growth": 92}, {"smiles": "Nc1cc(C(Cl)=C(Cl)Cl)c(S(N)(=O)=O)cc1S(N)(=O)=O", "note": "[Clorsulon]", "planktonic growth": 91}, {"smiles": "CC[C@H](C)C(=O)O[C@H]1CCC=C2C=C[C@H](C)[C@H](CC[C@@H]3C[C@@H](O)CC(=O)O3)[C@H]21", "note": "[Mevastatin]", "planktonic growth": 104}, {"smiles": "COc1c2occc2c(OC)c2c(=O)cc(C)oc12", "note": "[Khellin]", "planktonic growth": 98}, {"smiles": "NNc1nncc2ccccc12", "note": "[Hydralazine hydrochloride]", "planktonic growth": 108}, {"smiles": "CC(=O)OCC(CCn1cnc2cnc(N)nc21)COC(C)=O", "note": "[Famciclovir]", "planktonic growth": 102}, {"smiles": "CN1CCN(c2c(F)cc3c(=O)c(C(=O)O)cn(CCF)c3c2F)CC1", "note": "[Fleroxacin]", "planktonic growth": 22}, {"smiles": "C[C@H](CCC(=O)O)[C@H]1CC[C@H]2[C@@H]3[C@H](O)C[C@@H]4C[C@H](O)CC[C@]4(C)[C@H]3CC[C@]12C", "note": "[Chenodiol]", "planktonic growth": 101}, {"smiles": "c1ccc([C@H]2CN3CCSC3=N2)cc1", "note": "[Levamisole hydrochloride]", "planktonic growth": 93}, {"smiles": "CCC(=O)O[C@]1(C(=O)CCl)[C@@H](C)C[C@H]2[C@@H]3CCC4=CC(=O)C=C[C@]4(C)[C@@]3(F)[C@@H](O)C[C@@]21C", "note": "[Clobetasol propionate]", "planktonic growth": 89}, {"smiles": "O=S(=O)(O)c1cc(O)ccc1O", "note": "[Ethamsylate]", "planktonic growth": 85}, {"smiles": "O=C1OCCN1/N=C/c1ccc([N+](=O)[O-])o1", "note": "[Furazolidone]", "planktonic growth": 68}, {"smiles": "C[C@H]1C[C@@H]2[C@H]([C@@H](O)C[C@@]3(C)[C@H]2CC[C@]3(O)C(=O)CO)[C@@]2(C)C=CC(=O)C=C12", "note": "[Methylprednisolone, 6-alpha]", "planktonic growth": 95}, {"smiles": "COc1ccccc1OCC(O)CN1CCN(CC(=O)Nc2c(C)cccc2C)CC1", "note": "(configuration not stated) [Ranolazine]", "planktonic growth": 92}, {"smiles": "COc1cc([C@@H]2c3cc4c(cc3[C@@H](O[C@@H]3O[C@@H]5CO[C@@H](C)O[C@H]5[C@H](O)[C@H]3O)[C@H]3COC(=O)[C@H]23)OCO4)cc(OC)c1O", "note": "[Etoposide]", "planktonic growth": 98}, {"smiles": "CCCNCC(O)COc1ccccc1C(=O)CCc1ccccc1", "note": "(configuration not stated) [Propafenone hydrochloride]", "planktonic growth": 86}, {"smiles": "NC(=O)C(c1ccccc1)(c1ccccc1)[C@@H]1CCN(CCc2ccc3c(c2)CCO3)C1", "note": "[Darifenacin hydrobromide]", "planktonic growth": 103}, {"smiles": "CN(C)c1nc(N(C)C)nc(N(C)C)n1", "note": "[Altretamine]", "planktonic growth": 99}, {"smiles": "Nc1nc2n[nH]nc2c(=O)[nH]1", "note": "[Azaguanine-8]", "planktonic growth": 114}, {"smiles": "CC(C)NCC(O)c1ccc2ccccc2c1", "note": "(configuration not stated) [Pronethalol hydrochloride]", "planktonic growth": 94}, {"smiles": "CCOC(=O)C1=C(COCCN)NC(C)=C(C(=O)OC)C1c1ccccc1Cl", "note": "(configuration not stated) [Amlodipine]", "planktonic growth": 70}, {"smiles": "COc1ccc(/C=C/C(=O)Nc2ccccc2C(=O)O)cc1OC", "note": "[Tranilast]", "planktonic growth": 103}, {"smiles": "Cc1c(N(C)C)c(=O)n(-c2ccccc2)n1C", "note": "[Amidopyrine]", "planktonic growth": 104}, {"smiles": "Oc1c(Cl)cc(Cl)c(Cl)c1Cc1c(O)c(Cl)cc(Cl)c1Cl", "note": "[Hexachlorophene]", "planktonic growth": 65}, {"smiles": "CC(=O)[C@H]1CC[C@H]2[C@@H]3C=CC4=CC(=O)CC[C@@]4(C)[C@@H]3CC[C@]12C", "note": "[Dydrogesterone]", "planktonic growth": 107}, {"smiles": "Nc1nc(CC(=O)Nc2ccc(CCNC[C@H](O)c3ccccc3)cc2)cs1", "note": "[Mirabegron]", "planktonic growth": 110}, {"smiles": "NC[C@@H]1O[C@H](O[C@H]2[C@@H](O)[C@H](O[C@@H]3[C@@H](O)[C@H](N)C[C@H](N)[C@H]3O[C@H]3O[C@H](CO)[C@@H](O)[C@H](O)[C@H]3N)O[C@@H]2CO)[C@H](N)[C@@H](O)[C@@H]1O", "note": "[Paromomycin sulfate]", "planktonic growth": 85}, {"smiles": "COc1ccccc1OCC(O)CO", "note": "(configuration not stated) [Guaifenesin]", "planktonic growth": 91}, {"smiles": "Cc1cccc(C)c1OCC(C)N", "note": "(configuration not stated) [Mexiletine hydrochloride]", "planktonic growth": 110}, {"smiles": "N#Cc1cc(NC(=O)C(=O)O)c(Cl)c(NC(=O)C(=O)O)c1", "note": "[Lodoxamide]", "planktonic growth": 105}, {"smiles": "CN1[C@@H]2CC[C@H]1C[C@@H](OC(=O)c1c[nH]c3ccccc13)C2", "note": "[Tropisetron hydrochloride]", "planktonic growth": 96}, {"smiles": "O=C(OCC(O)CO)c1ccccc1Nc1ccnc2cc(Cl)ccc12", "note": "(configuration not stated) [Glafenine hydrochloride]", "planktonic growth": 87}, {"smiles": "CC(C(=O)O)c1ccc(-c2ccccc2)c(F)c1", "note": "(configuration not stated) [Flurbiprofen]", "planktonic growth": 74}]}]}
